Laboratory results as given in PubChem BioAssay AID743279 (National Center for Advancing Translational Sciences (NCATS), 2014).
In all, about 360,000 compounds went through this assay and about 17,000 (4.7%) were called active. The shares of active, inactive and inconclusive entries below differ from those in the screen. Rule as the data show it: active = activity change below about -50%; inconclusive = mostly about -30% to -49%; inactive = weaker than that.

Test: qHTS for Inhibitors of Inflammasome Signaling: IL-1-beta AlphaLISA Primary Screen
Details: THP-1 LPS/ATP IL-1B secretion, 16 h; at 57.5 µM, hits give low values
Summary of the method: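 THP-1 cells pretreated 1 hr with compounds (up to 57.5 uM final), then stimulated with LPS (250 ng/mL final) plus ATP (1.25 mM final); secreted IL-1B measured by AlphaLISA after 16 hr, decreased signal indicating inhibition.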
% is scaled to controls: 0 for no effect and ±100 for the full control effect.

SMILES	activity change
CC(NCc1ccc(-c2ccccc2)cc1)C(O)c1ccccc1 (configuration not stated)	active: -95.8%
CC(=O)Nc1ccc(NC(=O)C(C)OC(=O)/C=C/c2cn(-c3ccccc3)nc2-c2cccnc2)cc1 (configuration not stated)	inconclusive: -30.6%
COc1ccc(C(=O)C2CCCN(Cc3c[nH]c4ccccc34)C2)c(OC)c1 (configuration not stated)	inconclusive: -41.6%
O=C(Oc1cccc(C(=S)N2CCOCC2)c1)c1ccc([N+](=O)[O-])cc1[N+](=O)[O-]	inconclusive: -40.1%
COc1ccc(Cn2c(=O)[nH]c3cc(C(=O)NC4CCN(Cc5ccccc5)CC4)ccc32)cc1	inconclusive: -30.9%
COc1ccc(C#Cc2ccc3c(c2)O[C@H](CN(C)S(=O)(=O)c2ccccc2F)[C@H](C)CN([C@H](C)CO)S3(=O)=O)cc1	inconclusive: -38.6%
COc1ccc(CN2CCNC(=O)C2CC(=O)NC2CCCCCC2)cc1C (configuration not stated)	inconclusive: -37.8%
CCN(CC)C(=O)Cn1cc(C(=O)C(=O)Nc2ccc3c(c2)OCCO3)c2ccccc21	inconclusive: -31.7%
O=S(=O)(Nc1cccc(-c2ccc(N3CCCCCC3)nn2)c1)c1ccc(F)cc1	inconclusive: -35.4%
Cc1ccc(NC(=O)C2CCN(S(=O)(=O)c3ccc(F)cc3)CC2)cc1	inconclusive: -30.4%
Cc1ccc(-n2nc3c(c2NC(=O)c2ccc(S(=O)(=O)N4CCOCC4)cc2)CSC3)c(C)c1	inactive: -15.5%
COc1ccc(NC(=O)CN(C)C(=O)CN2C(=O)NC3(CCCC3)C2=O)cc1	inactive: 0%
CCOC(=O)c1ccc(N/N=C/c2cc(Br)cc([N+](=O)[O-])c2O)cc1	inactive: 4.88%
O=C(CNC(=O)c1cccc(F)c1)N/N=C/c1cccs1	inactive: -8.7%
COCCN1C(=O)CCC1(C)C(=O)NC1CCCCC1 (configuration not stated)	inactive: 18.8%
COc1ccccc1C(=O)Nc1ccc(NC(=O)c2ccco2)cn1	inconclusive: -33.1%
O=C(NCc1cccnc1)c1cc(Sc2ccc(F)cc2F)nc2ccccc12	inconclusive: -37.5%
CCc1ccc(/C=C/C(=O)C2C(=O)c3ccccc3C2=O)cc1	inconclusive: -38.3%
COc1ccc(-c2csc3ncn(-c4ccc(C)cc4)c(=O)c23)cc1OC	inconclusive: -30.9%
Cn1cccc1CC(=O)N/N=C\c1c2ccccc2cc2ccccc12	inconclusive: -41.9%
COc1ccccc1CNC(=O)c1c(-c2ccccc2)nn(-c2ccccc2)c1C	inconclusive: -40.9%
O=C(NCCOc1ccccc1F)C1CCC(=O)N(CC2CCCCC2)C1 (configuration not stated)	inactive: 0%
